# Test results: the supplement of paper PMC4604168 (melanoma cell lines)
# Some of the results follow. Single values are uncertain, as repeats are few or missing.
# System: COLO792
# Assay: cell count relative to DMSO control; melanoma cells; higher = more viable cells
# Settings: library dose: standard library concentration; 72 h
# 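Further: cells treated in 1,536-well plates, then fixed and DAPI-stained, with nuclei counted from automated high-throughput microscope images.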
row,Compound,cell count [%]
1,"Cn1c(Nc2ccc(C(F)(F)F)cc2)nc2cc(Oc3ccnc(-c4ncc(C(F)(F)F)[nH]4)c3)ccc21 + CC1(C)NC(=O)N(c2ccc([N+](=O)[O-])c(C(F)(F)F)c2)C1=O [nilutamide] (first compound 0.4 µM, partner dose 5 µM)",21.5
2,"COCC[n+]1c2c(n(Cc3cnccn3)c1C)C(=O)c1ccccc1C2=O + NC(=O)Nc1cc(-c2cccc(F)c2)sc1C(=O)N[C@H]1CCCNC1 [AZD7762] (first compound 0.002 µM, partner dose 0.1 µM)",35.1
3,"C#Cc1cccc(Nc2ncnc3cc(OCCOC)c(OCCOC)cc23)c1 [erlotinib] + CN(C)S(=O)(=O)c1ccc2c(c1)/C(=C/c1cc3c([nH]1)CCCC3)C(=O)N2 [SU6656] (first compound 4 µM, partner dose 2 µM)",38.6
4,"Cn1c(Nc2ccc(C(F)(F)F)cc2)nc2cc(Oc3ccnc(-c4ncc(C(F)(F)F)[nH]4)c3)ccc21 + COc1cc2c(Oc3ccc4[nH]c(C)cc4c3F)ncnc2cc1OCCCN1CCCC1 [cediranib] (first compound 0.4 µM, partner dose 2 µM)",21.1
5,"Clc1ccc(Nc2nnc(Cc3ccncc3)c3ccccc23)cc1 [vatalanib] + Cc1ccc(NC(=O)c2cccc(N(C)C)c2)cc1NC(=O)c1ccc(O)cc1 [ZM336372] (first compound 10 µM, partner dose 10 µM)",87
6,"Cn1c(Nc2ccc(C(F)(F)F)cc2)nc2cc(Oc3ccnc(-c4ncc(C(F)(F)F)[nH]4)c3)ccc21 + CC(C)(C)c1cnc(CSc2cnc(NC(=O)C3CCNCC3)s2)o1 [SNS-032] (first compound 0.4 µM, partner dose 0.05 µM)",18.1
7,"C#Cc1cccc(Nc2ncnc3cc(OCCOC)c(OCCOC)cc23)c1 [erlotinib] + COc1cc(Nc2ncc(F)c(Nc3ccc4c(n3)NC(=O)C(C)(C)O4)n2)cc(OC)c1OC [Tamatinib] (first compound 4 µM, partner dose 2 µM)",54.2
8,"Cn1c(Nc2ccc(C(F)(F)F)cc2)nc2cc(Oc3ccnc(-c4ncc(C(F)(F)F)[nH]4)c3)ccc21 + C[C@]1(c2nc3c(C(N)=O)cccc3[nH]2)CCCN1 [Veliparib] (first compound 0.4 µM, partner dose 7 µM)",20.9
9,"COCC[n+]1c2c(n(Cc3cnccn3)c1C)C(=O)c1ccccc1C2=O + CC1(C)NC(=O)N(c2ccc([N+](=O)[O-])c(C(F)(F)F)c2)C1=O [nilutamide] (first compound 0.002 µM, partner dose 5 µM)",58.5
10,"O=C(CCCCCCC(=O)Nc1ccccc1)NO [vorinostat] + CO[C@@H]1[C@H](N(C)C(=O)c2ccccc2)C[C@H]2O[C@]1(C)n1c3ccccc3c3c4c(c5c6ccccc6n2c5c31)C(=O)NC4 [Midostaurin] (first compound 0.4 µM, partner dose 0.4 µM)",41.1
11,"Clc1ccc(Nc2nnc(Cc3ccncc3)c3ccccc23)cc1 [vatalanib] + C=CCn1c(=O)c2cnc(Nc3ccc(N4CCN(C)CC4)cc3)nc2n1-c1cccc(C(C)(C)O)n1 [MK1775] (first compound 10 µM, partner dose 0.1 µM)",44.9
12,"OCc1c[nH]c2ccccc12 [Indole-3-carbinol] + OCCn1cc(-c2cnc3nnn(Cc4ccc5ncccc5c4)c3n2)cn1 [PF04217903] (first compound 4 µM, partner dose 5 µM)",93.8
13,"COCC[n+]1c2c(n(Cc3cnccn3)c1C)C(=O)c1ccccc1C2=O + Cn1nnc2c(C(N)=O)ncn2c1=O [temozolomide] (first compound 0.002 µM, partner dose 10 µM)",49.8
14,"OCc1c[nH]c2ccccc12 [Indole-3-carbinol] + O=C(O)c1ccc(-c2c[nH]c3ncc(-c4ccccc4)cc23)cc1C1CCCC1 [GSK650394] (first compound 4 µM, partner dose 0.8 µM)",69.6
15,"COCC[n+]1c2c(n(Cc3cnccn3)c1C)C(=O)c1ccccc1C2=O + O=C(Nc1cccc(Cl)c1)Nc1ncc(CCNc2ncnc3ccsc23)s1 [SNS314] (first compound 0.002 µM, partner dose 0.004 µM)",33.3
16,"C#Cc1cccc(Nc2ncnc3cc(OCCOC)c(OCCOC)cc23)c1 [erlotinib] + Nc1cccc2c1CN(C1CCC(=O)NC1=O)C2=O [lenalidomide] (first compound 4 µM, partner dose 5 µM)",69.5
17,"O=C(CCCCCCC(=O)Nc1ccccc1)NO [vorinostat] + OCCn1cc(-c2cnc3nnn(Cc4ccc5ncccc5c4)c3n2)cn1 [PF04217903] (first compound 0.4 µM, partner dose 5 µM)",93.7
18,"Nc1cccc2c1CN(C1CCC(=O)NC1=O)C2=O (stereo not drawn) [lenalidomide] + OCCn1cc(-c2cnc3nnn(Cc4ccc5ncccc5c4)c3n2)cn1 [PF04217903] (first compound 5 µM, partner dose 5 µM)",92.9
19,"C#Cc1cccc(Nc2ncnc3cc(OCCOC)c(OCCOC)cc23)c1 [erlotinib] + C=CCn1c(=O)c2cnc(Nc3ccc(N4CCN(C)CC4)cc3)nc2n1-c1cccc(C(C)(C)O)n1 [MK1775] (first compound 4 µM, partner dose 0.1 µM)",43.5
20,"COCC[n+]1c2c(n(Cc3cnccn3)c1C)C(=O)c1ccccc1C2=O + O=C(O)c1ccc(-c2c[nH]c3ncc(-c4ccccc4)cc23)cc1C1CCCC1 [GSK650394] (first compound 0.002 µM, partner dose 0.8 µM)",75.2
21,"OCc1c[nH]c2ccccc12 [Indole-3-carbinol] + NC(=O)Nc1cc(-c2cccc(F)c2)sc1C(=O)N[C@H]1CCCNC1 [AZD7762] (first compound 4 µM, partner dose 0.1 µM)",51.8
22,"Clc1ccc(Nc2nnc(Cc3ccncc3)c3ccccc23)cc1 [vatalanib] + Cn1nnc2c(C(N)=O)ncn2c1=O [temozolomide] (first compound 10 µM, partner dose 10 µM)",63.7
23,"Nc1cccc2c1CN(C1CCC(=O)NC1=O)C2=O (stereo not drawn) [lenalidomide] + C[C@]1(c2nc3c(C(N)=O)cccc3[nH]2)CCCN1 [Veliparib] (first compound 5 µM, partner dose 7 µM)",112
